# Source: the supplement of paper PMC8728848
# Shown is part of a subset that was picked to be rich in the strongest signals.
# Tests used:
# Test in all cases: glycan array binding signal (z-score within array); higher = stronger binding
# Details in all cases: glycan notation: IUPAC condensed, linker removed
# [1] = tested on: Neu5Ac(a2-3)[GalNAc(b1-4)]Gal(b1-4)Glc
# How it was run: (§1)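 Glycan array data came from 3228 arrays in the Consortium for Functional Glycomics database, and only arrays with an available protein sequence were kept. Glycan names were put into IUPAC-condensed notation, and columns mapping to the same glycan were averaged. The binding signal is a within-array Z-score, averaged across arrays of one protein sequence run at different concentrations or buffers and across linkers. A negative Z-score can be read as non-binding.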
# [2] = tested on: Neu5Ac(a2-3)Gal(b1-4)[Fuc(a1-3)]GlcNAc(b1-3)Gal(b1-4)[Fuc(a1-3)]GlcNAc(b1-3)Gal(b1-4)[Fuc(a1-3)]GlcNAc
# How it was run: as §1
# [3] = tested on: Neu5Ac(a2-3)[GalNAc(b1-4)]Gal(b1-4)GlcNAc(b1-3)GalNAc
# How it was run: as §1
# [4] = tested on: Neu5Ac(a2-3)[GalNAc(b1-4)]Gal(b1-4)GlcNAc
# How it was run: as §1
# [5] = tested on: Neu5Ac(a2-3)Gal(b1-4)[Fuc(a1-3)]GlcNAc
# How it was run: as §1
# [6] = tested on: Neu5Ac(a2-3)GalNAc(b1-4)GlcNAc
# How it was run: as §1
# Neu5Ac(a2-3)GalNAc = tested on: Neu5Ac(a2-3)GalNAc
# How it was run: as §1
# [7] = tested on: Neu5Ac(a2-3)Gal(b1-4)[Fuc(a1-3)]GlcNAc(b1-3)GalNAc
# How it was run: as §1
# [8] = tested on: Neu5Ac(a2-6)Gal(b1-4)GlcNAc(b1-2)Man(a1-3)[Gal(b1-4)GlcNAc(b1-2)Man(a1-6)]Man(b1-4)GlcNAc(b1-4)GlcNAc
# How it was run: as §1
# [9] = tested on: Neu5Ac(a2-3)Gal(b1-4)[Fuc(a1-3)]GlcNAc(b1-3)Gal
# How it was run: as §1
# [10] = tested on: Neu5Ac(a2-3)[Neu5Ac(a2-6)]GalNAc
# How it was run: as §1
# [11] = tested on: Neu5Ac(a2-6)Gal(b1-4)GlcNAc(b1-2)Man(a1-3)[GlcNAc(b1-2)Man(b1-4)GlcNAc(b1-2)Man(a1-6)]Man(b1-4)GlcNAc(b1-4)GlcNAc
# How it was run: as §1
# [12] = tested on: Neu5Ac(a2-3)Gal(b1-4)[Fuc(a1-3)]GlcNAc(b1-3)Gal(b1-4)GlcNAc
# How it was run: as §1
# [13] = tested on: Neu5Ac(a2-3)Gal(b1-4)[Fuc(a1-3)]GlcNAc(b1-6)[Gal(b1-3)]GalNAc
# How it was run: as §1
# [14] = tested on: Neu5Ac(a2-6)Gal(b1-4)GlcNAc(b1-2)Man(a1-3)[GlcNAc(b1-2)Man(a1-6)]Man(b1-4)GlcNAc(b1-4)GlcNAc
# How it was run: as §1
# [15] = tested on: Neu5Ac(a2-3)Gal6S(b1-4)[Fuc(a1-3)]GlcNAc
# How it was run: as §1
# [16] = tested on: Neu5Ac(a2-6)Gal(b1-3)GlcNAc(b1-3)[Gal(b1-4)GlcNAc(b1-6)]Gal(b1-4)Glc
# How it was run: as §1
# [17] = tested on: Neu5Ac(a2-6)Gal(b1-4)GlcNAc(b1-2)Man(a1-3)[Man(a1-6)]Man(b1-4)GlcNAc(b1-4)GlcNAc
# How it was run: as §1
# [18] = tested on: Neu5Ac(a2-3)Gal(b1-4)[Fuc(a1-3)]GlcNAc(b1-6)[Neu5Ac(a2-3)Gal(b1-3)]GalNAc
# How it was run: as §1
# [19] = tested on: Neu5Ac(a2-6)Gal(b1-4)GlcNAc(b1-2)Man(a1-3)[GlcNAc(b1-4)][Neu5Ac(a2-6)Gal(b1-4)GlcNAc(b1-2)Man(a1-6)]Man(b1-4)GlcNAc(b1-4)GlcNAc
# How it was run: as §1
substance,measurement,setting,value
Gal 3 (Homo sapiens) (chain not printed),glycan array binding signal (z-score),[1],-0.274
M-Ficolin Y271F (Homo sapiens) (chain not printed),glycan array binding signal (z-score),[2],-0.464
same,glycan array binding signal (z-score),[3],5.4
same,glycan array binding signal (z-score),[4],2.75
same,glycan array binding signal (z-score),[1],6.12
Collectin K1 (Homo sapiens) (chain not printed),glycan array binding signal (z-score),[5],-0.101
same,glycan array binding signal (z-score),[6],-0.133
same,glycan array binding signal (z-score),Neu5Ac(a2-3)GalNAc,-0.203
CLEC-2 (Homo sapiens) (chain not printed),glycan array binding signal (z-score),[7],2.52
same,glycan array binding signal (z-score),[8],0.851
M-Ficolin A256V (Homo sapiens) (chain not printed),glycan array binding signal (z-score),[9],-0.178
same,glycan array binding signal (z-score),[3],6.89
same,glycan array binding signal (z-score),[4],5.85
same,glycan array binding signal (z-score),[1],8.07
same,glycan array binding signal (z-score),[10],-0.165
same,glycan array binding signal (z-score),[8],-0.159
same,glycan array binding signal (z-score),[11],-0.036
M-Ficolin G221F A256V (Homo sapiens) (chain not printed),glycan array binding signal (z-score),[3],4.39
same,glycan array binding signal (z-score),[4],5.07
same,glycan array binding signal (z-score),[1],4.43
Angiogenin (Homo sapiens) (chain not printed),glycan array binding signal (z-score),[12],0.745
Siglec-2 (Homo sapiens) (chain not printed),glycan array binding signal (z-score),[8],1.89
H-Ficolin (Homo sapiens) (chain not printed),glycan array binding signal (z-score),[13],3.43
same,glycan array binding signal (z-score),[14],-0.252
Galectin-8 C-terminal CRD (Homo sapiens) (chain not printed),glycan array binding signal (z-score),[5],-0.329
same,glycan array binding signal (z-score),Neu5Ac(a2-3)GalNAc,-0.354
M-Ficolin G221F (Homo sapiens) (chain not printed),glycan array binding signal (z-score),[15],-0.162
same,glycan array binding signal (z-score),[3],4.86
same,glycan array binding signal (z-score),[4],5.47
same,glycan array binding signal (z-score),[1],6.55
Gal 8-short (Homo sapiens) (chain not printed),glycan array binding signal (z-score),Neu5Ac(a2-3)GalNAc,-0.721
L-Ficolin (Homo sapiens) (chain not printed),glycan array binding signal (z-score),[2],-0.479
same,glycan array binding signal (z-score),Neu5Ac(a2-3)GalNAc,0.492
same,glycan array binding signal (z-score),[4],0.077
Meso764 (Homo sapiens) (chain not printed),glycan array binding signal (z-score),[16],0.43
same,glycan array binding signal (z-score),[8],2.04
same,glycan array binding signal (z-score),[14],-0.18
same,glycan array binding signal (z-score),[17],-0.386
FGF2 (chain not printed),glycan array binding signal (z-score),[8],-0.078
Thrombomodulin Extracellular (Homo sapiens) (chain not printed),glycan array binding signal (z-score),[15],-0.315
same,glycan array binding signal (z-score),[16],-0.902
M-Ficolin (Homo sapiens) (chain not printed),glycan array binding signal (z-score),[12],-0.09
same,glycan array binding signal (z-score),[18],-0.01
same,glycan array binding signal (z-score),[4],3.47
same,glycan array binding signal (z-score),[1],4.08
MBP (Homo sapiens) (chain not printed),glycan array binding signal (z-score),[19],-0.42
VWF (Homo sapiens) (chain not printed),glycan array binding signal (z-score),Neu5Ac(a2-3)GalNAc,-0.016
same,glycan array binding signal (z-score),[4],-0.299
NCAM1 (Homo sapiens) (chain not printed),glycan array binding signal (z-score),[12],0.074
same,glycan array binding signal (z-score),[7],6.09
same,glycan array binding signal (z-score),[13],3.74
same,glycan array binding signal (z-score),[5],-0.322
same,glycan array binding signal (z-score),[3],-0.411
